# Experimental data as given in the supplement of paper PMC10037445.
# Over roughly 2,900 compounds, “NF-kB SEAP reporter activity, fold change vs agonist alone” has its median near 0.99; the highest 2% begin near 2.6. Some of the results follow.
# How the values were obtained:
# [1] = system: RAW-Dual; assay: NF-kB SEAP reporter activity, fold change vs agonist alone; cytotoxicity flag (confluency mask): not cytotoxic; higher = enhanced NF-kB activity
# Outline: (§1)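 Supernatant from RAW-Dual macrophages was read after 20 hours for IRF by QuantiLuc luminescence and for NF-κB by QuantiBlue absorbance at 620 nm. The cells (50,000 cells/well in DMEM, 384-well plates, 37 °C, 5% CO2) had received 50 nL of library stock by pin tool and, 1 h later, a PRR agonist. Reporter activity is expressed relative to agonist-alone wells as fold change, and wells were flagged cytotoxic if IncuCyte confluency was under 70% of agonist controls in both mask sets.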
# [2] = system: RAW-Dual; assay: NF-kB SEAP reporter activity, fold change vs agonist alone; higher = enhanced NF-kB activity
# Outline: as §1
# [3] = system: RAW-Dual; assay: NF-kB SEAP reporter activity, fold change vs agonist alone; cytotoxicity flag (confluency mask): cytotoxic (confluency <70% of control); higher = enhanced NF-kB activity
# Outline: as §1
# [4] = agonist: ODN 1826 (TLR9) 0.5 ug/mL
# [5] = agonist: Pam2CSK4 (TLR2/6) 0.1 ug/mL
# [6] = agonist: Pam3CSK4 (TLR2/1) 0.1 ug/mL
# [7] = library stock concentration (final ~1000-fold dilution): 10 mM, cytotoxicity flag (confluency mask): not cytotoxic, agonist: Imiquimod (TLR7) […]
# [8] = library stock concentration (final ~1000-fold dilution): 10 mM, cytotoxicity flag (confluency mask): not cytotoxic, agonist: MPLA (TLR4) […]
# [9] = library stock concentration (final ~1000-fold dilution): 10 mM, cytotoxicity flag (confluency mask): cytotoxic (confluency <70% of control), agonist: Imiquimod (TLR7) […]
# [10] = library stock concentration (final ~1000-fold dilution): 10 mM, cytotoxicity flag (confluency mask): cytotoxic (confluency <70% of control), agonist: MPLA (TLR4) […]
compound,measurement,setting,value
C[C@@H]1O[C@@H](OC[C@H]2O[C@@H](Oc3c(-c4ccc(O)c(O)c4)oc4cc(O)cc(O)c4c3=O)[C@H](O)[C@@H](O)[C@@H]2O)[C@H](O)[C@H](O)[C@H]1O (library stock concentration (final ~1000-fold dilution): 10 mM),NF-kB SEAP reporter activity,[1]; agonist: LPS (TLR4) 0.1 ug/mL,0.759
same,NF-kB SEAP reporter activity,[1]; [4],0.686
same,NF-kB SEAP reporter activity,[1]; [5],0.365
same,NF-kB SEAP reporter activity,[1]; [6],0.563
C[C@@H]1O[C@@H](OC[C@H]2O[C@@H](Oc3c(-c4ccc(O)c(O)c4)oc4cc(O)cc(O)c4c3=O)[C@H](O)[C@@H](O)[C@@H]2O)[C@H](O)[C@H](O)[C@H]1O,NF-kB SEAP reporter activity,[2]; [7],1.23
same,NF-kB SEAP reporter activity,[2]; [8],1.23
CCn1cc(C(=O)O)c(=O)c2cc(F)c(N3CCN(C)CC3)cc21.CS(=O)(=O)O (library stock concentration (final ~1000-fold dilution): 10 mM),NF-kB SEAP reporter activity,[1]; agonist: LPS (TLR4) 0.1 ug/mL,0.962
same,NF-kB SEAP reporter activity,[1]; [4],1.03
same,NF-kB SEAP reporter activity,[1]; [5],1.11
same,NF-kB SEAP reporter activity,[1]; [6],1.12
CCn1cc(C(=O)O)c(=O)c2cc(F)c(N3CCN(C)CC3)cc21.CS(=O)(=O)O,NF-kB SEAP reporter activity,[2]; [7],0.916
same,NF-kB SEAP reporter activity,[2]; [8],0.878
Cc1nn(C)c(COc2ccc(N3CCN(S(=O)(=O)N(C)C)CC3)cc2)c1-c1cccc2c(CCCOc3cccc4ccccc34)c(C(=O)O)n(CCN3CCOCC3)c12,NF-kB SEAP reporter activity,"[2]; library stock concentration (final ~1000-fold dilution): 2 mM, cytotoxicity flag (confluency mask): not cytotoxic, agonist: Imiquimod (TLR7) […]",0.932
same,NF-kB SEAP reporter activity,"[2]; library stock concentration (final ~1000-fold dilution): 2 mM, cytotoxicity flag (confluency mask): not cytotoxic, agonist: MPLA (TLR4) […]",1.07
Cc1nn(C)c(COc2ccc(N3CCN(S(=O)(=O)N(C)C)CC3)cc2)c1-c1cccc2c(CCCOc3cccc4ccccc34)c(C(=O)O)n(CCN3CCOCC3)c12 (library stock concentration (final ~1000-fold dilution): 2 mM),NF-kB SEAP reporter activity,[1]; agonist: LPS (TLR4) 0.1 ug/mL,1.01
same,NF-kB SEAP reporter activity,[1]; [4],1.15
same,NF-kB SEAP reporter activity,[1]; [5],1.15
same,NF-kB SEAP reporter activity,[1]; [6],0.95
N[C@@H](C=O)[C@@H](O)[C@H](O)[C@H](O)CO,NF-kB SEAP reporter activity,[2]; [7],0.969
same,NF-kB SEAP reporter activity,[2]; [8],1.05
N[C@@H](C=O)[C@@H](O)[C@H](O)[C@H](O)CO (library stock concentration (final ~1000-fold dilution): 10 mM),NF-kB SEAP reporter activity,[1]; agonist: LPS (TLR4) 0.1 ug/mL,0.651
same,NF-kB SEAP reporter activity,[1]; [4],0.78
same,NF-kB SEAP reporter activity,[1]; [5],0.49
same,NF-kB SEAP reporter activity,[1]; [6],0.508
CC1=CC(=O)c2ccccc2C1=O (library stock concentration (final ~1000-fold dilution): 10 mM),NF-kB SEAP reporter activity,[3]; agonist: LPS (TLR4) 0.1 ug/mL,0.204
same,NF-kB SEAP reporter activity,[3]; [4],0.152
same,NF-kB SEAP reporter activity,[3]; [5],0.282
same,NF-kB SEAP reporter activity,[3]; [6],0.151
CC1=CC(=O)c2ccccc2C1=O,NF-kB SEAP reporter activity,[2]; [9],0.148
same,NF-kB SEAP reporter activity,[2]; [10],0.147
CC(O)C1C(=O)N2C(C(=O)O)=C(SCCNC=N)CC12.O (stereo not given),NF-kB SEAP reporter activity,"[2]; library stock concentration (final ~1000-fold dilution): 10 mM water, cytotoxicity flag (confluency mask): not cytotoxic, agonist: Imiquimod (TLR7) […]",0.896
same,NF-kB SEAP reporter activity,"[2]; library stock concentration (final ~1000-fold dilution): 10 mM water, cytotoxicity flag (confluency mask): not cytotoxic, agonist: MPLA (TLR4) […]",1.02
CC(O)C1C(=O)N2C(C(=O)O)=C(SCCNC=N)CC12.O (stereo not given) (library stock concentration (final ~1000-fold dilution): 10 mM water),NF-kB SEAP reporter activity,[1]; agonist: LPS (TLR4) 0.1 ug/mL,1.41
same,NF-kB SEAP reporter activity,[1]; [4],1.16
same,NF-kB SEAP reporter activity,[1]; [5],1.23
same,NF-kB SEAP reporter activity,[1]; [6],1.07
CCCc1nc2c(C)cc(-c3nc4ccccc4n3C)cc2n1Cc1ccc(-c2ccccc2C(=O)O)cc1,NF-kB SEAP reporter activity,[2]; [7],1
same,NF-kB SEAP reporter activity,[2]; [8],0.78
CCCc1nc2c(C)cc(-c3nc4ccccc4n3C)cc2n1Cc1ccc(-c2ccccc2C(=O)O)cc1 (library stock concentration (final ~1000-fold dilution): 10 mM),NF-kB SEAP reporter activity,[1]; agonist: LPS (TLR4) 0.1 ug/mL,0.995
same,NF-kB SEAP reporter activity,[1]; [4],1.07
same,NF-kB SEAP reporter activity,[1]; [5],0.68
same,NF-kB SEAP reporter activity,[1]; [6],0.76
CCc1c2c(nc3ccc(OC(=O)N4CCC(N5CCCCC5)CC4)cc13)-c1cc3c(c(=O)n1C2)COC(=O)C3(O)CC.Cl.O.O.O (stereo not given),NF-kB SEAP reporter activity,[2]; [7],1.02
same,NF-kB SEAP reporter activity,[2]; [8],1.02
CCc1c2c(nc3ccc(OC(=O)N4CCC(N5CCCCC5)CC4)cc13)-c1cc3c(c(=O)n1C2)COC(=O)C3(O)CC.Cl.O.O.O (stereo not given) (library stock concentration (final ~1000-fold dilution): 10 mM),NF-kB SEAP reporter activity,[1]; agonist: LPS (TLR4) 0.1 ug/mL,1.02
same,NF-kB SEAP reporter activity,[1]; [4],0.787
same,NF-kB SEAP reporter activity,[1]; [5],1.03
same,NF-kB SEAP reporter activity,[1]; [6],1.18
O=c1cc(N2CCOCC2)oc2c(-c3ccc4c(c3)OCCO4)csc12 (library stock concentration (final ~1000-fold dilution): 10 mM),NF-kB SEAP reporter activity,[1]; agonist: LPS (TLR4) 0.1 ug/mL,6.86
same,NF-kB SEAP reporter activity,[1]; [4],2.26
same,NF-kB SEAP reporter activity,[1]; [5],0.957
same,NF-kB SEAP reporter activity,[1]; [6],2.84
O=c1cc(N2CCOCC2)oc2c(-c3ccc4c(c3)OCCO4)csc12,NF-kB SEAP reporter activity,[2]; [7],1.57
same,NF-kB SEAP reporter activity,[2]; [8],2.36
COC(=O)C1C(O)CCC2CN3CCc4c([nH]c5ccccc45)C3CC21.Cl (stereo not given) (library stock concentration (final ~1000-fold dilution): 10 mM),NF-kB SEAP reporter activity,[1]; agonist: LPS (TLR4) 0.1 ug/mL,0.84
same,NF-kB SEAP reporter activity,[1]; [4],0.615
same,NF-kB SEAP reporter activity,[1]; [5],0.997
same,NF-kB SEAP reporter activity,[1]; [6],1.01
COC(=O)C1C(O)CCC2CN3CCc4c([nH]c5ccccc45)C3CC21.Cl (stereo not given),NF-kB SEAP reporter activity,[2]; [8],0.915
Nc1ncnc2c1c(I)cn2C1OC(CO)C(O)C1O (stereo not given),NF-kB SEAP reporter activity,[2]; [9],0.145
same,NF-kB SEAP reporter activity,[2]; [10],0.26
Nc1ncnc2c1c(I)cn2C1OC(CO)C(O)C1O (stereo not given) (library stock concentration (final ~1000-fold dilution): 10 mM),NF-kB SEAP reporter activity,[3]; agonist: LPS (TLR4) 0.1 ug/mL,0.213
same,NF-kB SEAP reporter activity,[3]; [4],0.195
same,NF-kB SEAP reporter activity,[3]; [5],0.0844
same,NF-kB SEAP reporter activity,[3]; [6],0.123
CC(C)CC(=O)Nc1cncc(-c2ccc3[nH]nc(-c4nc5cncc(-c6cccc(F)c6)c5[nH]4)c3c2)c1 (library stock concentration (final ~1000-fold dilution): 10 mM),NF-kB SEAP reporter activity,[3]; agonist: LPS (TLR4) 0.1 ug/mL,0.623
same,NF-kB SEAP reporter activity,[3]; [4],0.492
same,NF-kB SEAP reporter activity,[3]; [5],0.243
same,NF-kB SEAP reporter activity,[3]; [6],0.316
CC(C)CC(=O)Nc1cncc(-c2ccc3[nH]nc(-c4nc5cncc(-c6cccc(F)c6)c5[nH]4)c3c2)c1,NF-kB SEAP reporter activity,[2]; [9],0.791
same,NF-kB SEAP reporter activity,[2]; [10],1.48
CC(=O)Oc1cc(C)c(OC(C)=O)c2ccccc12 (library stock concentration (final ~1000-fold dilution): 10 mM),NF-kB SEAP reporter activity,[3]; agonist: LPS (TLR4) 0.1 ug/mL,0.208
same,NF-kB SEAP reporter activity,[3]; [4],0.151
same,NF-kB SEAP reporter activity,[3]; [5],0.493
same,NF-kB SEAP reporter activity,[3]; [6],0.349
